# This is one part of the list.
# B1: PkBDPgamma (Plasmodium knowlesi) (protein)
# chain: SAINQIFLQNNVMDKCNDKRKRGERDWDCPTEKDVCIPDRRYQLCMMEITNLVDTDTHFHSDIIFRKSYSRRRLIYDVGGRGDLLLKKYNNVYSEDLCKDIKWSLQDFGDIIMGTDMEGIGYSLVVQNNLRSIFGTGTSAELDRKKWWNDHKKDIWKAMILSVKEKNRYSAWNCKEDVQIKVEPQIYRWIREWGRDYMSEFREQRRKLNEKCEDKLYYSTMLICTLPPCNNACKSYDEWITGKKKQWDVLSTKFSSVKKAQKIETENIARAYDILKQELNGFNEVTFENEINKRDKLYNYFCVCIVQEARKNTQENVKNVGSGVESKAPSSNPINEAVKSSSGEGKVQEDSAHRSVNEGEGKSSTNEADPGSQPGAAASGGGSGGGTGGGVDLAPQMLRELQETNAALQDVRELLRQQVKEITFLKNTVMECDACGGPLDRNLPPLAPLGPTGGWSHPQFEK
# Experiments:
# Assay in all cases: glycan array binding signal (z-score within array); higher = stronger binding
# Details in all cases: glycan notation: IUPAC condensed, linker removed
# [1] = biological target: Gal3S(b1-3)[Fuc(a1-4)]GlcNAc
# In short: (§1)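 Negative Z-scores can be read as non-binding. The Z-score is calculated within each array and then averaged across arrays of one protein sequence at different concentrations or buffers and across linkers. Arrays, 3228 in all, were curated from the Consortium for Functional Glycomics database and kept only where the protein sequence was available.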
# Gal3S(b1-4)Glc = biological target: Gal3S(b1-4)Glc
# In short: as §1
# Gal3S(b1-4)Glc6S = biological target: Gal3S(b1-4)Glc6S
# In short: as §1
# Gal3S(b1-4)GlcNAc = biological target: Gal3S(b1-4)GlcNAc
# In short: as §1
# [2] = biological target: Gal3S(b1-4)[Fuc(a1-3)]Glc6S
# In short: as §1
# [3] = biological target: Gal3S(b1-4)[Fuc(a1-3)]GlcNAc
# In short: as §1
# [4] = biological target: Gal3S(b1-4)[Fuc(a1-3)]GlcNAc6S
# In short: as §1
# Gal3S4S(b1-4)GlcNAc = biological target: Gal3S4S(b1-4)GlcNAc
# In short: as §1
# Gal3S6S(b1-4)GlcNAc = biological target: Gal3S6S(b1-4)GlcNAc
# In short: as §1
# Gal3S6S(b1-4)GlcNAc6S = biological target: Gal3S6S(b1-4)GlcNAc6S
# In short: as §1
# Gal4S(b1-4)GlcNAc = biological target: Gal4S(b1-4)GlcNAc
# In short: as §1
# Gal4S6S(b1-4)GlcNAc = biological target: Gal4S6S(b1-4)GlcNAc
# In short: as §1
# Gal6P(b1-4)GlcNAc = biological target: Gal6P(b1-4)GlcNAc
# In short: as §1
# Gal6S(b1-3)GlcNAc = biological target: Gal6S(b1-3)GlcNAc
# In short: as §1
# Gal6S(b1-3)GlcNAc6S = biological target: Gal6S(b1-3)GlcNAc6S
# In short: as §1
# Gal6S(b1-4)Glc = biological target: Gal6S(b1-4)Glc
# In short: as §1
# Gal6S(b1-4)Glc6S = biological target: Gal6S(b1-4)Glc6S
# In short: as §1
# Gal6S(b1-4)GlcNAc = biological target: Gal6S(b1-4)GlcNAc
# In short: as §1
# Gal6S(b1-4)GlcNAc6S = biological target: Gal6S(b1-4)GlcNAc6S
# In short: as §1
# GalNAc(a1-3)Gal = biological target: GalNAc(a1-3)Gal
# In short: as §1
# GalNAc(a1-3)GalNAc = biological target: GalNAc(a1-3)GalNAc
# In short: as §1
# [5] = biological target: GalNAc(a1-3)GalNAc(b1-3)Gal(a1-4)Gal(b1-4)Glc
# In short: as §1
# [6] = biological target: GalNAc(a1-3)GalNAc(b1-3)Gal(a1-4)Gal(b1-4)GlcNAc
# In short: as §1
# GalNAc(b1-3)Gal = biological target: GalNAc(b1-3)Gal
# In short: as §1
# [7] = biological target: GalNAc(b1-3)Gal(a1-4)Gal(b1-4)GlcNAc
# In short: as §1
# [8] = biological target: GalNAc(b1-3)Gal(a1-4)Gal(b1-4)GlcNAc(b1-3)Gal(b1-4)Glc
# In short: as §1
# [9] = biological target: GalNAc(b1-3)Gal(a1-6)Gal(b1-4)Glc
# In short: as §1
# GalNAc(b1-3)GalNAc = biological target: GalNAc(b1-3)GalNAc
# In short: as §1
# GalNAc(b1-3)GlcNAc = biological target: GalNAc(b1-3)GlcNAc
# In short: as §1
# GalNAc(b1-4)Gal(b1-4)Glc = biological target: GalNAc(b1-4)Gal(b1-4)Glc
# In short: as §1
# GalNAc(b1-4)GlcNAc = biological target: GalNAc(b1-4)GlcNAc
# In short: as §1
# [10] = biological target: GalNAc(b1-4)GlcNAc(b1-2)Man
# In short: as §1
# [11] = biological target: GalNAc(b1-4)GlcNAc(b1-2)Man(a1-3)[GalNAc(b1-4)GlcNAc(b1-2)Man(a1-6)]Man(b1-4)GlcNAc(b1-4)GlcNAc
# In short: as §1
# [12] = biological target: GalNAc(b1-4)GlcNAc(b1-3)GalNAc(b1-4)GlcNAc
# In short: as §1
# GalNAc(b1-4)GlcNAc6S = biological target: GalNAc(b1-4)GlcNAc6S
# In short: as §1
# GalNAc(b1-6)GalNAc = biological target: GalNAc(b1-6)GalNAc
# In short: as §1
# GalNAc3S(b1-4)GlcNAc = biological target: GalNAc3S(b1-4)GlcNAc
# In short: as §1
binder,measurement,setting,value
B1,glycan array binding signal (z-score),[1],0.689
same,glycan array binding signal (z-score),Gal3S(b1-4)Glc,0.325
same,glycan array binding signal (z-score),Gal3S(b1-4)Glc6S,-0.138
same,glycan array binding signal (z-score),Gal3S(b1-4)GlcNAc,0.452
same,glycan array binding signal (z-score),[2],0.272
same,glycan array binding signal (z-score),[3],-0.081
same,glycan array binding signal (z-score),[4],-0.049
same,glycan array binding signal (z-score),Gal3S4S(b1-4)GlcNAc,0.437
same,glycan array binding signal (z-score),Gal3S6S(b1-4)GlcNAc,-0.155
same,glycan array binding signal (z-score),Gal3S6S(b1-4)GlcNAc6S,-0.041
same,glycan array binding signal (z-score),Gal4S(b1-4)GlcNAc,-0.583
same,glycan array binding signal (z-score),Gal4S6S(b1-4)GlcNAc,-0.03
same,glycan array binding signal (z-score),Gal6P(b1-4)GlcNAc,-0.45
same,glycan array binding signal (z-score),Gal6S(b1-3)GlcNAc,0.415
same,glycan array binding signal (z-score),Gal6S(b1-3)GlcNAc6S,0.413
same,glycan array binding signal (z-score),Gal6S(b1-4)Glc,-0.205
same,glycan array binding signal (z-score),Gal6S(b1-4)Glc6S,-0.135
same,glycan array binding signal (z-score),Gal6S(b1-4)GlcNAc,0.756
same,glycan array binding signal (z-score),Gal6S(b1-4)GlcNAc6S,-0.398
same,glycan array binding signal (z-score),GalNAc(a1-3)Gal,-0.429
same,glycan array binding signal (z-score),GalNAc(a1-3)GalNAc,0.011
same,glycan array binding signal (z-score),[5],-0.045
same,glycan array binding signal (z-score),[6],-0.303
same,glycan array binding signal (z-score),GalNAc(b1-3)Gal,-0.379
same,glycan array binding signal (z-score),[7],0.65
same,glycan array binding signal (z-score),[8],0.064
same,glycan array binding signal (z-score),[9],-0.242
same,glycan array binding signal (z-score),GalNAc(b1-3)GalNAc,0.271
same,glycan array binding signal (z-score),GalNAc(b1-3)GlcNAc,-0.039
same,glycan array binding signal (z-score),GalNAc(b1-4)Gal(b1-4)Glc,-0.243
same,glycan array binding signal (z-score),GalNAc(b1-4)GlcNAc,-0.002
same,glycan array binding signal (z-score),[10],-0.287
same,glycan array binding signal (z-score),[11],0.206
same,glycan array binding signal (z-score),[12],0.044
same,glycan array binding signal (z-score),GalNAc(b1-4)GlcNAc6S,0.1
same,glycan array binding signal (z-score),GalNAc(b1-6)GalNAc,0.029
same,glycan array binding signal (z-score),GalNAc3S(b1-4)GlcNAc,0.264

# Source: the supplement of paper PMC8728848
